Reference: PubChem BioAssay AID488969 (Vanderbilt High Throughput Screening Facility, 2010)
Over roughly 110,000 compounds, “z-score” has its median near -0.1; the highest 2% begin near 2. The list shows a part of the results. Activity calls are given as the source filed them.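 Rule for the calls: active = z-score in the third read window above 3 or below -3; inactive = the rest.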

Target: Metabotropic glutamate receptor 8 (Rattus norvegicus) (UniProt P70579)
Assay: mGluR8 Gi/Go-coupled signaling modulation – cell-based, rat, thallium flux, HTS, primary screen (AID 488969)
Details: HEK293 rat mGluR8, GIRK (G protein-gated inwardly rectifying potassium channel) thallium flux, FluoZin2; at 10 µM; stronger effect = higher value; submaximal glutamate (EC20) added with thallium

UniProt P70579, sequence (P70579 whole entry, looked up): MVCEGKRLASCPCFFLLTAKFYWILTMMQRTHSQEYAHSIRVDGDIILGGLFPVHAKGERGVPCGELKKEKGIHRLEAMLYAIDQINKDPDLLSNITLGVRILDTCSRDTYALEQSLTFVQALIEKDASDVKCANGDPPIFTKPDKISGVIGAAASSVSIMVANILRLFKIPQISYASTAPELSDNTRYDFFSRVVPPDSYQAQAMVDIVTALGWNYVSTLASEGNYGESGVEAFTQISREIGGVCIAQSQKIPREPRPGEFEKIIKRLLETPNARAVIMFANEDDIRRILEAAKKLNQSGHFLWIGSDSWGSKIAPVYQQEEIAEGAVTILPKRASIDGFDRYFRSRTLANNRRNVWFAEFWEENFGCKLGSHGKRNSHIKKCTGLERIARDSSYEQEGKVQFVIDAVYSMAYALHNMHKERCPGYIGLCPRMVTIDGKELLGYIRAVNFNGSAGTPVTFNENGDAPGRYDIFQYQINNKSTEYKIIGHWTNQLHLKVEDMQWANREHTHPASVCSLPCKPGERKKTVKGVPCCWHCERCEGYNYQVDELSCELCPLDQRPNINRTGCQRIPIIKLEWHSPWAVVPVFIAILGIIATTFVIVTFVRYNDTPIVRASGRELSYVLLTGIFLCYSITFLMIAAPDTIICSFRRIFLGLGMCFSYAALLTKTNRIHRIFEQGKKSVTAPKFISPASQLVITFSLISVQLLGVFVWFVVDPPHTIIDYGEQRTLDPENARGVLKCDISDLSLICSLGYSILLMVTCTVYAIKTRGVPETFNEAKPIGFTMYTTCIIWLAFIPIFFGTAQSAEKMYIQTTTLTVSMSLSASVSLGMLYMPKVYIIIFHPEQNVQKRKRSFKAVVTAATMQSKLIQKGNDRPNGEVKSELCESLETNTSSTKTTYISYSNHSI

| Structure (SMILES) | z-score |
| --- | --- |
| CC(=O)Nc1ccc(S(=O)(=O)Nc2nc3ccccc3nc2N2CCc3ccccc3C2)cc1 | -0.323 |
| Cc1onc(-c2ccccc2Cl)c1C(=O)Nc1ccc(N2CCOCC2)cc1 | -0.313 |
| O=C(CN1CCN(Cc2ccccc2)CC1)N/N=C/C=C/c1ccccc1[N+](=O)[O-] | 0.438 |
| CCC(=O)NC(=S)Nc1ccc(S(=O)(=O)NC(C)=O)cc1 | 0.551 |
| Cn1c(=O)n(C)c2cc(/C=C3/NC(=O)N(Cc4ccccc4)C3=O)ccc21 | -0.157 |
| COc1ccc(Cn2c(CCC(=O)Nc3ccc(CC#N)cc3)nc3cccnc32)cc1 | 0.247 |
| CCNc1nc(Cl)nc(N(NC(C)=O)C(C)CC)n1 (centres undefined) | -0.0442 |
| CCOC(=O)c1c(C)[nH]c(=S)c(C#N)c1-c1ccc(OC)cc1 | 0.501 |
| O=C(c1cccnc1)N1CCN(Cc2cccc(F)c2)CC1 | -0.0119 |
| CCOc1ccc(N2C(=O)C3C4C=CC(CC4)C3C2=O)c([N+](=O)[O-])c1 (centres undefined) | 0.0139 |
| CCSc1nc2c(c(-c3ccc(C)o3)c1C#N)CCCC2 | -0.313 |
| O=C(Oc1ccc2c(=O)c(Oc3ccc4ccccc4c3)coc2c1)c1cncc(Br)c1 | -1.44 |
| COC(=O)C1CCN(C(=O)c2sc3nc(-c4ccc(F)cc4)cn3c2C)CC1 | -1.91 |
| Cn1nc(C(=O)NCCN2CCOCC2)c2ccccc2c1=O | 0.0382 |
| COc1ccc(N(Cc2cc3ccc(C)cc3[nH]c2=O)C(=O)c2ccco2)cc1 | -0.389 |
| N#C/C(=C/c1cccc(C(F)(F)F)c1)c1nc(CCN2C(=O)c3ccccc3C2=O)cs1 | -0.0278 |
| c1nnnn1C12CC3CC(CC(C3)C1)C2 | 0.487 |
| COc1cccc(Nc2nc(C)cc(C)c2C#N)c1 | -0.0986 |
| O=C(NC(=S)N1CCCCC1)c1cccnc1 | 0.39 |
| Cc1cccc(C(=O)N2CCCCCC2)c1 | 0.0897 |
| COc1ccc(C2CC(=O)c3c(ccc4ccccc34)N2)cc1OC (centres undefined) | 0.387 |
| O=C1OC(Cc2ccncc2)C(O)=C1C1=NCCCN1 (centres undefined) | -0.135 |
| CC(=O)C1=C(C)NC(SCC(=O)Nc2nccs2)=C(C#N)C1c1ccccc1Cl (centres undefined) | -1.18 |

| Structure (SMILES) | z-score |
| --- | --- |
| Cc1ccccc1C(=O)N1CCC(C(=O)Nc2ccc(S(=O)(=O)N3CCCC3)cc2)CC1 | -1.06 |
| Cc1nc2ccccn2c1C(=O)N=Nc1c(O)[nH]c2ccccc12 | -0.339 |
| Cc1ccc(-n2c(-c3cccs3)nc3nc4ccccc4nc32)cc1 | 0.827 |
| CCOC(=O)C1CCCN(S(=O)(=O)c2ccc(OC)c3ccccc23)C1 (centres undefined) | 1.42 |
| CC1=C(C(=O)OC(C)C)C(c2cccs2)NC(=S)N1 (centres undefined) | -0.124 |
| COc1ccc(C2CC(=O)C=C(NC3CCCC3)C2)cc1 (centres undefined) | 0.141 |
| CC(=O)NC(=O)c1ccc(-c2ccc(Cl)cc2)o1 | -0.365 |
| COCC(=O)Nc1sc2c(c1C(=O)OC)CCC(C)C2 (centres undefined) | -0.444 |
| COc1ccc(Cl)c(Cn2c(NCc3ccccn3)nc3c2c(=O)n(C)c(=O)n3C)c1 | -2.16 |
| Cc1cccc(-n2ncc3c(N4CCC(C)CC4)ncnc32)c1 | 0.0351 |
| Cc1oc(-c2ccc(Cl)cc2)[n+]([O-])c1C | -0.0329 |
| C1CCN(CCCNC2C3CC4CC(C3)CC2C4)C1 (centres undefined) | 0.869 |
| COc1ccc(-c2nn(C)c(=O)c3ccccc23)cc1NS(C)(=O)=O | 0.596 |
| CC(=O)N=c1ncn(CC(COC(C)=O)OC(C)=O)c2nc[nH]c12 (centres undefined) | 0.992 |
| Cc1ccc2c3c1C1(C(=O)N3C(C)(C)CC2C)C(C#N)=C(N)Oc2cc(O)ccc21 (centres undefined) | 0.214 |
| Cc1ccc(S(=O)(=O)N2CCC(C(=O)N3CCC[C@H]3C(=O)NC3CCS(=O)(=O)C3)CC2)cc1 (some centres undefined) | -0.182 |
| O=C(Cn1ncc2c3ccccc3n(Cc3ccccc3)c2c1=O)N1CCN(c2ncccn2)CC1 | -0.147 |
| Cc1cccc(C)c1NC(=O)C(=O)NCc1ccccn1 | 0.282 |
| Cc1ccc(C)c(C(=O)Nc2c(C(N)=O)oc3ccccc23)c1 | -0.172 |
| CCOc1ccc(CC(=O)Nc2sc(Cc3ccccc3)c(C)c2C(N)=O)cc1OCC | -0.176 |
| COc1ccc(Cl)cc1C(=O)NNC(=S)NC(=O)c1cc(-c2ccccc2)nc2ccccc12 | 1.06 |
| Cc1cc(C)c(C(N)=O)c(NC(=O)Nc2ccccc2)n1 | -0.365 |
| COc1cc(NC(=O)COC(=O)CSc2ccc3ccccc3c2)c(C)cc1[N+](=O)[O-] | 0.0632 |

| Structure (SMILES) | z-score |
| --- | --- |
| CC(=O)C(Sc1nn(C)c(=S)s1)C(=O)Nc1ccccc1 (centres undefined) | 0.091 |
| O=C(CSc1nnc(CCc2ccccc2)n1-c1ccc(Cl)cc1)c1ccccc1 | -0.506 |
| COc1cc(CCC(=O)Nc2ccc(Br)c(C(F)(F)F)c2)cc(OC)c1OC | 0.067 |
| Cc1noc(C)c1S(=O)(=O)N1CCC(C(=O)NC2CCCc3ccccc32)CC1 (centres undefined) | -0.315 |
| COc1cc(SC)ccc1C(=O)Nc1ccccc1C#N | -0.0123 |
| O=C(CSc1n[nH]c(-c2ccc(Cl)cc2Cl)n1)Nc1ccccn1 | -0.406 |
| Oc1ccc(C2N=C(c3ccccc3)NC(c3ccccc3)=N2)cc1 | -0.128 |
| c1ccc(Nc2ncnc3sc4c(c23)CCC4)cc1 | -0.551 |
| CC1CC(C)CN(S(=O)(=O)c2ccc3c(c2)oc(=O)n3CC(=O)N2CCOCC2)C1 (centres undefined) | -0.278 |
| CC(=O)c1cc(Cl)ccc1OC(=O)c1ccco1 | 0.12 |
| C=C(C)C1CC=C(C)/C(=N/NC(=O)COc2cccc3ccccc23)C1 (centres undefined) | 0.0808 |
| C=CCn1c(SC/C=C/c2ccccc2)nnc1-c1sc(N)nc1C | -0.233 |
| O=C(CCCSc1ccccc1)Nc1nc(-c2ccco2)c(-c2ccco2)s1 | -0.198 |
| Cc1n[nH]c(C)c1N1C(=O)c2cccc3cc(Br)cc(c23)C1=O | 0.154 |
| COc1cccc(C(=O)OCCN(C)C(C)(C)C)c1 | -0.29 |
| CCSc1nnc(NC(=O)c2nn(C(C)C)c(=O)c3ccccc23)s1 | active: -3.38 |
| Cc1cccc(Nc2nc(N)nc(CSC(=S)N3CCOCC3)n2)c1 | -0.0162 |
| CCC(O)c1cc2c(cc1NC(=O)c1cccs1)OCCO2 (centres undefined) | 0.423 |
| CC1=NN2C(=N)/C(=C\c3ccc(SCc4ccccc4)o3)C(=O)N=C2S1 | -0.21 |
| Cc1ccc(C)c(NC(=O)CCC(=O)N/N=C/c2ccc[nH]2)c1 | -0.47 |
| Cc1cc(Br)c(NC(=O)CCl)c(Br)c1 | 0.0161 |
| CN(C)CCCn1c(N)c(C#N)c2nc(C#N)c(C#N)nc21 | 0.0606 |
| CCC(C)(C(=O)NC1CCCCC1)N(Cc1ccco1)C(=O)Cc1cccs1 (centres undefined) | -0.493 |
